To fix the notation:
B1: TEV protease; numbered along this chain (parent)
chain: MGESLFKGPRDYNPISSSICHLTNESDGHTTSLYGIGFGPFIITNKHLFRRNNGTLVVQSLHGVFKVKDTTTLQQHLVDGRDMIIIRMPKDFPPFPQKLKFREPQREERICLVTTNFQTKSMSSMVSDTSCTFPSGDGIFWKHWIQTKDGQCGSPLVSTRDGFIVGIHSASNFTNTNNYFTSVPKNFMELLTNQEAQQWVSGWRLNADSVLWGGHKVFMVKPEEPFQPVKEATQL

Some of the results follow. The full chains were built here from the parent and the listed change. Inactive controls read about 0.05.
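Note: Bxb1 expression induced with 0.2% (w/v) L-rhamnose at OD600 near 0.5, cultures sampled hourly, flipped fraction per protease–substrate barcode pair counted by paired-end Illumina sequencing.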

The variants in the test derive from B1. Nature of the test: raw area under fraction-flipped curve 0-4 h after induction (AUC4h, not background-subtracted), DNA-recorder readout of cleavage of the substrate (dimensionless); higher = more cleavage of the substrate by the protease variant. Particulars: temperature: 34 °C; time window: 0-4 h after rhamnose induction. As for the experimental part:
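In vivo DNA recorder in E. coli TOP10(DE3) ΔrhaA at 34 °C. Each TEVp single-site mutant (parent TEVp 0) is paired with a single-site variant of the 7-mer TEVs (canonical ENLYFQ|S). The substrate sits between flexible linkers in a Bxb1-sfGFP-TEVs-SsrA fusion, so cleavage stabilises Bxb1 and speeds flipping of a recombination array, read by NGS. The value is the raw area under the fraction-flipped curve over 0-4 h after rhamnose induction (AUC4h), with ≥20 reads per time point. It is not background-subtracted; inactive controls average about 0.047.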
For MGESLFKGPRDYNPISSSICHLTNESDGHTTSLYGIGFGPFIITNKHLFRRNNGTLVVQSLHGVFKVKDTTTLQQHLVDGRDMIIIRMPKDFPPFPQKLKFREPQREERICLVTTNFQTKSMSSMVSDTSCTFPSGDGIFWKHWIQTKDGQCGSPLVSTRDGFIVGIHSASNFTNTNNYFTSVPKNFMELLTNQEAEQWVSGWRLNADSVLWGGHKVFMVKPEEPFQPVKEATQL [Q197E], the “area with substrate ENCYFQS” value turned out to be 0.0806, the “area with substrate ENFYFQS” value was 0.0473, the “area with substrate ENGYFQS” value is 0.0805 and the “area with substrate ENIYFQS” value came to 0.0768. For the same variant, the “area with substrate ENKYFQS” value worked out at 0.063, the “area with substrate ENMYFQS” value amounted to 0.066, the “area with substrate ENNYFQS” value came out at 0.0894 and the “area with substrate ENPYFQS” value is 0.0651. Moreover, the “area with substrate ENSYFQS” value came to 0.0889, the “area with substrate ENVYFQS” value came to 0.0799 and the “area with substrate ENWYFQS” value was 0.003.
Regarding MGESLFKGPRDYNPISSSICHLTNESDGHTTSLYGIGFGPFIITNKHLFRRNNGTLVVQSLHGVFKVKDTTTLQQHLVDGRDMIIIRMPKDFPPFPQKLKFREPQREERICLVTTNFQTKSMSSMVSDTSCTFPSGDGIFWKHWIQTKDGQCGSPLVSTRDGFIVGIHSASNFTNTNNYFTSVPKNFMELLTNQEAFQWVSGWRLNADSVLWGGHKVFMVKPEEPFQPVKEATQL [Q197F], the “area with substrate ENCYFQS” value came to 0.0568, the “area with substrate ENDYFQS” value is 0.061, the “area with substrate ENEYFQS” value is 0.0493 and the “area with substrate ENFYFQS” value is 0.0629. Also, the “area with substrate ENGYFQS” value was determined as 0.0445, the “area with substrate ENNYFQS” value is 0.0822, the “area with substrate ENPYFQS” value was found to be 0.047 and the “area with substrate ENQYFQS” value stood at 0.0592. The “area with substrate ENSYFQS” value stood at 0.0708, the “area with substrate ENTYFQS” value was 0.0589 and the “area with substrate ENVYFQS” value was found to be 0.0822.
Consider MGESLRKGPRDYNPISSSICHLTNESDGHTTSLYGIGFGPFIITNKHLFRRNNGTLVVQSLHGVFKVKDTTTLQQHLVDGRDMIIIRMPKDFPPFPQKLKFREPQREERICLVTTNFQTKSMSSMVSDTSCTFPSGDGIFWKHWIQTKDGQCGSPLVSTRDGFIVGIHSASNFTNTNNYFTSVPKNFMELLTNQEAQQWVSGWRLNADSVLWGGHKVFMVKPEEPFQPVKEATQL [F6R], for which the “area with substrate ENDYFQS” value stood at 0.0708, the “area with substrate ENEYFQS” value worked out at 0.0503, the “area with substrate ENHYFQS” value stood at 0.0658 and the “area with substrate ENQYFQS” value was 0.0587. The “area with substrate ENSYFQS” value turned out to be 0.0595 and the “area with substrate ENWYFQS” value turned out to be 0.0054.
For MGESLFKGPRDYNPISSSICHLTNESDGHTTSLYGIGFGPFIITNKHLFRRNNGTLVVQSLHGVFKVKDTTTLQQHLVDGRDMIIIRMPKDFPPFPQKLKFREPQREERICLVTTNFQTKSMSSMVSDTSCTFPSGDGIFWKHWIQTKDGQCGSPLVSTRDGFIVGIHSASNFTNTNNYFTSVPKNFMELLTNQGAQQWVSGWRLNADSVLWGGHKVFMVKPEEPFQPVKEATQL [E195G], the “area with substrate ENCYFQS” value came out at 0.0489, the “area with substrate ENDYFQS” value worked out at 0.0691, the “area with substrate ENFYFQS” value was determined as 0.0824 and the “area with substrate ENGYFQS” value was determined as 0.0743. The “area with substrate ENKYFQS” value is 0.0623, the “area with substrate ENNYFQS” value is 0.0665, the “area with substrate ENQYFQS” value was determined as 0.0624 and the “area with substrate ENSYFQS” value was 0.0705. The “area with substrate ENTYFQS” value came to 0.0729, the “area with substrate ENVYFQS” value was found to be 0.0788, the “area with substrate ENWYFQS” value turned out to be 0.0617 and the “area with substrate ENYYFQS” value worked out at 0.057.
For MGESLFKGPRDYNPISSSICHLTNESDGHTTSLYGIGFGPFIITNKHLFRRNNGTLVVQSLHGVFKVKDTTTLQQHLVDGRDMIIIRMPKDFPPFPQKLKFREPQREERICLVTTNFQTKSMSSMVSDTSCTFPSGDGIFWKHWIQTKDGQCGSPLVSTRDGFIVGIHSASNFTNTNNYFTSVPKNFMELLTNQEAQQWVSGWRLNLDSVLWGGHKVFMVKPEEPFQPVKEATQL [A207L], the “area with substrate ENCYFQS” value came out at 0.0769, the “area with substrate ENDYFQS” value stood at 0.0623, the “area with substrate ENFYFQS” value worked out at 0.0591 and the “area with substrate ENHYFQS” value is 0.0713. Further, the “area with substrate ENMYFQS” value was 0.099, the “area with substrate ENPYFQS” value stood at 0.0445, the “area with substrate ENSYFQS” value was determined as 0.0611 and the “area with substrate ENVYFQS” value came out at 0.0641. Moreover, the “area with substrate ENYYFQS” value is 0.0587.
With MGESLFKGPRDYNPISSSICHLTNESDGHTTSLYGIGFGPFIITNKHLFRRNNGTLVVQSLHGVFKVKDTTTLQQHLVDGRDMIIIRMPKDFPPFPQKLKFREPQREERICLVTTNFQTKSMSSMVSDTSCTFPSGDGIFWKHWIQTKDGQCGSPLVSTRDGFIVGIHSASNFTNTNNYFTSVPKNFMELLTNQEAQQWVSGWRLKADSVLWGGHKVFMVKPEEPFQPVKEATQL [N206K], the “area with substrate ENCYFQS” value is 0.0475, the “area with substrate ENEYFQS” value is 0.0613, the “area with substrate ENGYFQS” value amounted to 0.0816 and the “area with substrate ENSYFQS” value was found to be 0.0342.
In the case of MGESLFKGPRDYNPISSSICHLTNESDGHTTSLYGIGFGPFIITNKHLFRRNNGTLVQQSLHGVFKVKDTTTLQQHLVDGRDMIIIRMPKDFPPFPQKLKFREPQREERICLVTTNFQTKSMSSMVSDTSCTFPSGDGIFWKHWIQTKDGQCGSPLVSTRDGFIVGIHSASNFTNTNNYFTSVPKNFMELLTNQEAQQWVSGWRLNADSVLWGGHKVFMVKPEEPFQPVKEATQL [V58Q], the “area with substrate ENDYFQS” value came out at 0.0484, the “area with substrate ENMYFQS” value worked out at 0.0499, the “area with substrate ENQYFQS” value came to 0.0524 and the “area with substrate ENRYFQS” value amounted to 0.0507. In addition, the “area with substrate ENSYFQS” value was 0.0437.
Regarding MGESLFKGPRDYNPISSSICHLTNESDGHTTSLYGIGFGPFIITNKHLFRRNNGTLVVQSLHGVFKVKDTTTLQQHLVDGRDMIIIRMPKDFPPFPQKLKFREPQREERICLVTTNFQTKSMSSMVSDTSCTFPSGDGIFWKHWIQTKDGQCGSPLVSTRDGFIVGIHSASNFTNTNNYFTSVPKNFMELLTNQEAQQWVSGWRLNAGSVLWGGHKVFMVKPEEPFQPVKEATQL [D208G], the “area with substrate ENCYFQS” value was determined as 0.0541, the “area with substrate ENDYFQS” value worked out at 0.0387, the “area with substrate ENFYFQS” value worked out at 0.0545 and the “area with substrate ENGYFQS” value came out at 0.0546. In addition, the “area with substrate ENHYFQS” value came to 0.0636, the “area with substrate ENNYFQS” value was 0.0612, the “area with substrate ENQYFQS” value was 0.0584 and the “area with substrate ENSYFQS” value was 0.0545. The “area with substrate ENVYFQS” value worked out at 0.0704 and the “area with substrate ENYYFQS” value is 0.0674.
In the case of MGESLFKGPRDYNPISSSICHLTNESDGHTTSLYGIGFGPFIITNKHLFRRNNGTLVVQSLHGVFKVKDTTTLQQHLVDGRDMIIIRMPKDFPPFPQKLKFREPQREERICLVTTNFQTKSMSSMVSDTSCTFPSGDGIFWKHWIQTKDGQCGSPLVSTRDGFIVGIHSASNFTNTNNYFTSVPKNFMELLTNQEAQQWVSGWRLNADSVLWGGHKVYMVKPEEPFQPVKEATQL [F218Y], the “area with substrate ENCYFQS” value came to 0.0746, the “area with substrate ENEYFQS” value is 0.0585, the “area with substrate ENSYFQS” value amounted to 0.0421 and the “area with substrate ENYYFQS” value came out at 0.0769.
For the variant MGESLFKGPRDYNPISSSICHLTNESDGHTTSLYGIGFGPFIITNKHLFRRNNGTLVVQSLHGVFKVKDTTTLQQHLVDGRDMIIIRMPKDFPPFPQKLKFREPQREERICLVTTNFQTKSMSSMVSDTSCTFPSGDGIFWKHWIQTKDGQCGSPLVSTRDGFIVGIHSASNFTNTNNYFTSVPKNFMELLTNQEAQQWVSGWRLNADSVLWGGHKVFMVKPEEPFQPPKEATQL [V229P], the “area with substrate ENCYFQS” value is 0.1, the “area with substrate ENDYFQS” value was 0.0611, the “area with substrate ENFYFQS” value was determined as 0.0721 and the “area with substrate ENGYFQS” value amounted to 0.0575. The “area with substrate ENHYFQS” value amounted to 0.0826, the “area with substrate ENKYFQS” value worked out at 0.0587, the “area with substrate ENNYFQS” value worked out at 0.0587 and the “area with substrate ENPYFQS” value is 0.0471. In addition, the “area with substrate ENRYFQS” value turned out to be 0.0573, the “area with substrate ENTYFQS” value came to 0.0631, the “area with substrate ENVYFQS” value amounted to 0.0799 and the “area with substrate ENYYFQS” value amounted to 0.0263.
In the case of MGESLFKGPRDYNPISSSICHLTNESDGHTTSLYGIGFGPFIITNKHLFRRNNGTLVVQSLHGVFKVKDTTTLQQHLVDGRDMIIIRMPKDFPPFPQKLKFREPQREERICLVTTNFQTKSMSSMVSDTSCTFPSGDGIFWKHWIQTKDGQCGSPLVSTRDGFIVGIHSASNFTNTNNYFTSVPKNFMELLTNQEAQQWVSGWRLNADSVLWGGHKVFMVKPEEPFFPVKEATQL [Q227F], the “area with substrate ENCYFQS” value was 0.0669, the “area with substrate ENDYFQS” value was determined as 0.0689, the “area with substrate ENEYFQS” value was determined as 0.064 and the “area with substrate ENIYFQS” value stood at 0.12. For the same variant, the “area with substrate ENKYFQS” value came to 0.0647 and the “area with substrate ENQYFQS” value came to 0.0533.

For the origin of these results see the supplement of paper PMC12217912.
